Results from the supplement of paper PMC9927326.
MIC of clinical C. albicans isolates, CLSI broth microdilution (ranges and time not stated); higher = less susceptible. Call: susceptible or wild type [S] / resistant or non-wild type [R] by CLSI breakpoints or epidemiological cut-offs; intermediate and dose-dependent carry no call here (the paper groups them with resistant). '<=' and '>=' mark each drug's lowest and highest value, inferred; the source prints them plain. Isolates are numbered anew.

Assays:
Assay in all cases: CLSI broth microdilution.
posaconazole = compound: CC[C@@H]([C@H](C)O)n1ncn(-c2ccc(N3CCN(c4ccc(OC[C@@H]5CO[C@@](Cn6cncn6)(c6ccc(F)cc6F)C5)cc4)CC3)cc2)c1=O [posaconazole]
caspofungin = compound: CC[C@H](C)C[C@H](C)CCCCCCCCC(=O)N[C@H]1C[C@@H](O)[C@@H](NCCN)NC(=O)[C@@H]2[C@@H](O)CCN2C(=O)[C@H]([C@H](O)CCN)NC(=O)[C@H]([C@H](O)[C@@H](O)c2ccc(O)cc2)NC(=O)[C@@H]2C[C@@H](O)CN2C(=O)[C@H]([C@@H](C)O)NC1=O [caspofungin]
flucytosine = compound: Nc1[nH]c(=O)ncc1F [flucytosine]
micafungin = compound: CCCCCOc1ccc(-c2cc(-c3ccc(C(=O)N[C@H]4C[C@@H](O)[C@@H](O)NC(=O)[C@@H]5[C@@H](O)[C@@H](C)CN5C(=O)[C@H]([C@H](O)CC(N)=O)NC(=O)[C@H]([C@H](O)[C@@H](O)c5ccc(O)c(OS(=O)(=O)O)c5)NC(=O)[C@@H]5C[C@@H](O)CN5C(=O)[C@H]([C@@H](C)O)NC4=O)cc3)no2)cc1 [micafungin]
amphotericin B = compound: C[C@@H]1[C@H](O)[C@@H](C)/C=C/C=C/C=C/C=C/C=C/C=C/C=C/[C@H](O[C@@H]2O[C@H](C)[C@@H](O)[C@H](N)[C@@H]2O)C[C@@H]2O[C@](O)(C[C@@H](O)C[C@@H](O)[C@H](O)CC[C@@H](O)C[C@@H](O)CC(=O)O[C@H]1C)C[C@H](O)[C@H]2C(=O)O [amphotericin B]
anidulafungin = compound: CCCCCOc1ccc(-c2ccc(-c3ccc(C(=O)N[C@H]4C[C@@H](O)[C@@H](O)NC(=O)[C@@H]5[C@@H](O)[C@@H](C)CN5C(=O)[C@H]([C@@H](C)O)NC(=O)[C@H]([C@H](O)[C@@H](O)c5ccc(O)cc5)NC(=O)[C@@H]5C[C@@H](O)CN5C(=O)[C@H]([C@@H](C)O)NC4=O)cc3)cc2)cc1 [anidulafungin]
voriconazole = compound: C[C@@H](c1ncncc1F)[C@](O)(Cn1cncn1)c1ccc(F)cc1F [voriconazole]
fluconazole = compound: OC(Cn1cncn1)(Cn1cncn1)c1ccc(F)cc1F [fluconazole]
itraconazole = compound: CCC(C)n1ncn(-c2ccc(N3CCN(c4ccc(OCC5COC(Cn6cncn6)(c6ccc(Cl)cc6Cl)O5)cc4)CC3)cc2)c1=O [itraconazole]

| Test System | MIC (posaconazole) | MIC (caspofungin) | MIC (flucytosine) | MIC (micafungin) | MIC (amphotericin B) | MIC (anidulafungin) | MIC (voriconazole) | MIC (fluconazole) | MIC (itraconazole) |
| --- | --- | --- | --- | --- | --- | --- | --- | --- | --- |
| Candida albicans isolate 144 (Erg11p: V488I,S441F,V437I, Fur1p: WT, Tac1p: WT) | 0.03 mg/L [S] | 0.06 mg/L [S] | 0.25 mg/L [S] | 0.015 mg/L [S] | 0.5 mg/L [S] | ≤ 0.015 mg/L [S] | ≤ 0.008 mg/L [S] | 0.25 mg/L [S] | 0.06 mg/L [S] |
| Candida albicans isolate 22 (Erg11p: V488I,E266D,Y132H,T123I, Fur1p: R101C, Tac1p: M170V,S108N) | 0.015 mg/L [S] | 0.06 mg/L [S] | ≤ 0.06 mg/L [S] | 0.015 mg/L [S] | 0.5 mg/L [S] | 0.06 mg/L [S] | ≤ 0.008 mg/L [S] | 0.5 mg/L [S] | 0.03 mg/L [S] |
| Candida albicans isolate 44 (Erg11p: WT, Fur1p: WT, Tac1p: N896S) | 0.015 mg/L [S] | 0.03 mg/L [S] | ≤ 0.06 mg/L [S] | 0.015 mg/L [S] | 0.25 mg/L [S] | 0.03 mg/L [S] | ≤ 0.008 mg/L [S] | 0.5 mg/L [S] | 0.03 mg/L [S] |
| Candida albicans isolate 203 (Erg11p: WT, Fur1p: WT, Tac1p: I558V,A377V,F189S,N174D,M170I,K87N) | 0.015 mg/L [S] | 0.03 mg/L [S] | ≤ 0.06 mg/L [S] | 0.015 mg/L [S] | 0.5 mg/L [S] | ≤ 0.015 mg/L [S] | ≤ 0.008 mg/L [S] | 0.25 mg/L [S] | ≤ 0.015 mg/L [S] |
| Candida albicans isolate 162 (Erg11p: K342R, Fur1p: WT, Tac1p: I558V,A377V,F189S,N174D,M170I,K87N) | 0.03 mg/L [S] | 0.03 mg/L [S] | ≤ 0.06 mg/L [S] | ≤ 0.008 mg/L [S] | 0.5 mg/L [S] | ≤ 0.015 mg/L [S] | ≤ 0.008 mg/L [S] | 0.5 mg/L [S] | 0.03 mg/L [S] |
| Candida albicans isolate 266 (Erg11p: WT, Fur1p: R101C, Tac1p: WT) | 0.015 mg/L [S] | 0.015 mg/L [S] | 0.25 mg/L [S] | 0.015 mg/L [S] | 0.5 mg/L [S] | ≤ 0.015 mg/L [S] | ≤ 0.008 mg/L [S] | 0.25 mg/L [S] | ≤ 0.015 mg/L [S] |
| Candida albicans isolate 294 (Erg11p: WT, Fur1p: WT, Tac1p: I558V,A377V,F189S,N174D,M170I,K87N) | 0.015 mg/L [S] | 0.03 mg/L [S] | ≤ 0.06 mg/L [S] | 0.015 mg/L [S] | 0.5 mg/L [S] | 0.03 mg/L [S] | ≤ 0.008 mg/L [S] | 0.25 mg/L [S] | ≤ 0.015 mg/L [S] |
| Candida albicans isolate 272 (Erg11p: WT, Fur1p: WT, Tac1p: M170V,S108N) | 0.03 mg/L [S] | 0.03 mg/L [S] | ≤ 0.06 mg/L [S] | 0.015 mg/L [S] | 0.25 mg/L [S] | 0.06 mg/L [S] | ≤ 0.008 mg/L [S] | 0.25 mg/L [S] | 0.03 mg/L [S] |
| Candida albicans isolate 300 (Erg11p: V488I,E266D, Fur1p: WT, Tac1p: N896S,I895T) | 0.015 mg/L [S] | 0.03 mg/L [S] | ≥ 64 mg/L [R] | 0.015 mg/L [S] | 0.25 mg/L [S] | ≤ 0.015 mg/L [S] | ≤ 0.008 mg/L [S] | 0.5 mg/L [S] | 0.03 mg/L [S] |
| Candida albicans isolate 204 (Erg11p: V488I,E266D, Fur1p: WT, Tac1p: N896S) | 0.015 mg/L [S] | 0.03 mg/L [S] | ≤ 0.06 mg/L [S] | 0.015 mg/L [S] | 0.5 mg/L [S] | ≤ 0.015 mg/L [S] | ≤ 0.008 mg/L [S] | 0.25 mg/L [S] | ≤ 0.015 mg/L [S] |
| Candida albicans isolate 7 (Erg11p: V437I,E266D, Fur1p: WT, Tac1p: S937L,I895T,L695F,I558V,F189S,L131I) | 0.03 mg/L [S] | 0.03 mg/L [S] | ≤ 0.06 mg/L [S] | 0.015 mg/L [S] | 0.5 mg/L [S] | 0.06 mg/L [S] | ≤ 0.008 mg/L [S] | 0.5 mg/L [S] | 0.03 mg/L [S] |
| Candida albicans isolate 32 (Erg11p: V488I,E266D, Fur1p: WT, Tac1p: N896S,I895T) | 0.03 mg/L [S] | 0.03 mg/L [S] | ≥ 64 mg/L [R] | 0.015 mg/L [S] | 0.5 mg/L [S] | ≤ 0.015 mg/L [S] | ≤ 0.008 mg/L [S] | 0.5 mg/L [S] | 0.12 mg/L [S] |
| Candida albicans isolate 229 (Erg11p: V488I,E266D, Fur1p: WT, Tac1p: N896S) | 0.015 mg/L [S] | 0.03 mg/L [S] | ≤ 0.06 mg/L [S] | ≤ 0.008 mg/L [S] | 0.5 mg/L [S] | 0.03 mg/L [S] | ≤ 0.008 mg/L [S] | 0.25 mg/L [S] | 0.03 mg/L [S] |
| Candida albicans isolate 205 (Erg11p: K342R,E266D, Fur1p: WT, Tac1p: I558V,A377V,F189S,N174D,M170I,K87N) | 0.015 mg/L [S] | 0.03 mg/L [S] | ≤ 0.06 mg/L [S] | ≤ 0.008 mg/L [S] | 0.25 mg/L [S] | ≤ 0.015 mg/L [S] | ≤ 0.008 mg/L [S] | 0.5 mg/L [S] | ≤ 0.015 mg/L [S] |
| Candida albicans isolate 172 (Erg11p: E266D,G129A, Fur1p: WT, Tac1p: R869Q,L695F,I558V,A377V,F189S,M170V,L131I) | 0.03 mg/L [S] | 0.12 mg/L [S] | ≤ 0.06 mg/L [S] | 0.015 mg/L [S] | 0.5 mg/L [S] | 0.06 mg/L [S] | ≤ 0.008 mg/L [S] | 0.5 mg/L [S] | 0.06 mg/L [S] |
| Candida albicans isolate 35 (Erg11p: E266D, Fur1p: WT, Tac1p: T885K,I558V,A430V,A377V,F189S,N174D,M170I,M170V,K87N) | 0.015 mg/L [S] | 0.03 mg/L [S] | ≤ 0.06 mg/L [S] | ≤ 0.008 mg/L [S] | 0.5 mg/L [S] | 0.12 mg/L [S] | ≤ 0.008 mg/L [S] | 0.25 mg/L [S] | ≤ 0.015 mg/L [S] |
